42 molecules from patent US8067379B2, “Sulfur compounds as inhibitors of hepatitis C virus NS3 serine protease” (Schering Corporation, priority 2004, dated 2011) can be followed below.

SMILES strings stand for the structures. A value given as a limit tells only on which side of the number the result lay.

The first experiment addresses Recombinant heterodimeric HCV NS3/NS4A protease (strain 1a) (Hepatitis C virus genotype 1a, UniProt P27958). Put plainly: Spectrophotometric assay for HCV serine protease inhibitory activity (chromogenic ester substrates). The format is biochemical. Particulars: Table 3, sulfide compounds; HCV serine protease; read-out: Ki* range.
Take `C=CCNC(=O)C(=O)C(CCC)NC(=O)[C@@H]1[C@@H]2[C@H](CN1C(=O)[C@@H](NC(=O)NC1(CSc3ccccn3)CCCCC1)C(C)(C)C)C2(C)C` (stereo partly drawn) [Compound 128]: the Ki was in the range of 0.075 to 0.25 µM.

Staying with this experiment, now noted: Table 3, sulfone compounds, rows without Prep. Ex. number; read-out: Ki* (numeric value, unlabelled structures at end of sulfone table, column without head).
As for `CCC(C)(C)S(=O)(=O)CC1(NC(=O)N[C@H](C(=O)N2C[C@H]3[C@@H]([C@H]2C(=O)NC(CC2CCC2)C(=O)C(=O)NC2CC2)C3(C)C)C2(C)CCCCC2)CCCCC1` (stereo partly drawn), the inhibition constant (Ki) was 0.054 µM. In the case of `C#CCCC(NC(=O)[C@@H]1[C@H]2CC(C)(C)O[C@H]2CN1C(=O)[C@@H](NC(=O)NC1(CS(=O)(=O)C(C)(C)C)CCCCC1)C1CCCCC1)C(=O)C(=O)NCC=C` (stereo partly drawn), the inhibition constant (Ki) was determined as 0.023 µM. In the case of `C=CCNC(=O)C(=O)C(CCC)NC(=O)[C@@H]1[C@@H]2[C@H](CN1C(=O)[C@@H](NC(=O)NC1(CS(=O)(=O)C(C)(C)C)CCCCC1)C1(C)CCCC1)C2(C)C` (stereo partly drawn), the Ki came out at 0.022 µM.

Regarding `C#CCCC(NC(=O)[C@@H]1[C@@H]2[C@H](CN1C(=O)[C@@H](NC(=O)NC1(CS(=O)(=O)C(C)(C)C)CCCCC1)C1(C)CCCCC1)C2(C)C)C(=O)C(=O)NCC=C` (stereo partly drawn), the Ki is 0.005 µM.

Staying with this experiment, now noted: Table 3, sulfone compounds; HCV serine protease; read-out: Ki* range.
As for `C#CCCC(NC(=O)[C@@H]1[C@@H]2[C@H](CN1C(=O)[C@@H](NC(=O)NC1(CS(=O)(=O)CCC(C)C)CCCCC1)C(C)(C)C)C2(C)C)C(=O)C(=O)NCC=C` (stereo partly drawn) [Compound 281], the inhibition constant (Ki) was below 0.075 µM. With `C=CCCNC(=O)C(=O)C(CCC=C)NC(=O)[C@@H]1[C@@H]2[C@H](CN1C(=O)[C@@H](NC(=O)NC1(CS(=O)(=O)CCC(C)C)CCCCC1)C(C)(C)C)C2(C)C` (stereo partly drawn) [Compound 285], the Ki was below 0.075 µM. On the same count and under the same terms, to `CC(C)(C)[C@H](NC(=O)NC1(CS(=O)(=O)c2ccccc2)CCCCC1)C(=O)N1C[C@H]2[C@@H]([C@H]1C(=O)NC(CC1CC1)C(=O)C(N)=O)C2(C)C` (stereo partly drawn) [Compound 142] belongs below 0.075 µM; to `C=CCNC(=O)C(=O)C(CCCC)NC(=O)[C@@H]1[C@@H]2[C@H](CN1C(=O)[C@@H](NC(=O)N[C@H](CS(=O)(=O)Cc1ccccc1)C(C)C)C(C)(C)C)C2(C)C` (stereo partly drawn) [Compound 149], 0.075 to 0.25 µM; to `C=CCNC(=O)C(=O)C(CC1CC1)NC(=O)[C@@H]1[C@@H]2[C@H](CN1C(=O)[C@@H](NC(=O)NC1(CS(=O)(=O)CCC(C)C)CCCCC1)C1CCCCC1)C2(C)C` (stereo partly drawn) [Compound 293], below 0.075 µM. For the molecule `CC(C)(C)[C@H](NC(=O)NC1(CS(=O)(=O)C(C)(C)C)CCCCC1)C(=O)N1C[C@H]2[C@@H]([C@H]1C(=O)NC(CC1CCC1)C(=O)C(N)=O)C21CC1` (stereo partly drawn) [Compound 279], the inhibition constant (Ki) is below 0.075 µM. The same measure, in the same setting: to `C=CCCNC(=O)C(=O)C(CCC=C)NC(=O)[C@@H]1[C@@H]2[C@H](CN1C(=O)[C@@H](NC(=O)NC1(CS(=O)(=O)C(C)(C)C)CCCCC1)C(C)(C)C)C2(C)C` (stereo partly drawn) [Compound 273] belongs below 0.075 µM; to `C=CCNC(=O)C(=O)C(CCC)NC(=O)[C@@H]1CCCN1C(=O)[C@@H](NC(=O)NC1(CS(=O)(=O)C(C)(C)C)CCCCC1)C(C)(C)C` (stereo partly drawn) [Compound 243], above 0.25 µM. Still for that read-out and setting: the value for `CCCC(NC(=O)[C@@H]1[C@@H]2[C@H](CN1C(=O)[C@@H](NC(=O)NC1(CS(=O)(=O)C(C)(C)C)CCCCC1)C(C)(C)C)C2(C)C)C(=O)C(N)=O` (stereo partly drawn) [Compound 262] was below 0.075 µM.

The same experiment, now with this note: Table 3A; class symbols; read-out: Ki* Range.
On to `CCCC[C@H](NC(=O)[C@@H]1[C@@H]2[C@H](CN1C(=O)[C@@H](NC(=O)NC1(C3OCC(C)(C)S3(=O)=O)CCCCC1)C1(C)CCCCC1)C2(C)C)C(=O)C(=O)NCC` (stereo partly drawn) [Compound 883-eo], for which the Ki was below 0.075 µM. Same read-out and setting: to `C=CCNC(=O)C(=O)[C@H](CCCC)NC(=O)[C@@H]1[C@@H]2[C@H](CN1C(=O)[C@@H](NC(=O)NC1(CS(=O)(=O)C3CCCC3)CCCCC1)C1CCCCC1)C2(C)C` [Compound 734] belongs below 0.075 µM; to `CC1([C@H](NC(=O)NC2(CS(=O)(=O)C(C)(C)C)CCCCC2)C(=O)N2C[C@H]3[C@@H]([C@H]2C(=O)NC(CC2CC2)C(=O)C(=O)NCc2cccs2)C3(C)C)CCCCC1` (stereo partly drawn) [Compound 596], below 0.075 µM; to `C=CCNC(=O)C(=O)C(CCC1CC1)NC(=O)[C@@H]1CC2(CN1C(=O)[C@@H](NC(=O)NC1(CS(=O)(=O)C(C)(C)C)CCCCC1)C(C)(C)C)SCCS2` (stereo partly drawn) [Compound 680], below 0.075 µM. Same read-out and setting: the value for `C=CCNC(=O)C(=O)[C@@H](CCC1CC1)NC(=O)[C@@H]1[C@@H]2[C@H](CN1C(=O)[C@@H](NC(=O)NC1(CS(=O)(=O)C(C)(C)C)CCCCC1)C(C)(C)C)C2(C)C` [Compound 700] was below 0.075 µM; that for `C=CCNC(=O)C(=O)[C@H](CCCC)NC(=O)[C@@H]1[C@@H]2[C@H](CN1C(=O)[C@@H](NC(=O)NC1(CS(=O)(=O)C(C)(C)C)CCCCC1)C1CCCCC1)C2(C)C` [Compound 865] was below 0.075 µM; that for `C=CCNC(=O)C(=O)C(CCC1CC1)NC(=O)[C@@H]1[C@@H]2[C@H](CN1C(=O)[C@@H](NC(=O)NC1(CS(=O)(=O)C(C)(C)CO)CCCCC1)C(C)(C)C)C2(C)C` (stereo partly drawn) [Compound 709] was below 0.075 µM. On the same count and under the same terms, the value for `C=CCNC(=O)C(=O)[C@H](CC1CC1)NC(=O)[C@@H]1[C@@H]2[C@H](CN1C(=O)[C@@H](NC(=O)NC1([C@H]3CCCS3(=O)=O)CCCCC1)C1(C)CCCCC1)C2(C)C` [Compound 883-ad] was below 0.075 µM; that for `CCNC(=O)C(=O)C(CCC1CC1)NC(=O)[C@@H]1[C@@H]2[C@H](CN1C(=O)[C@@H](NC(=O)NC1(CS(=O)(=O)C(C)(C)C)CCCCC1)C(C)(C)C)C2(C)C` (stereo partly drawn) [Compound 478] was below 0.075 µM. Regarding `CNC(=O)C(=O)[C@@H](CC1CC1)NC(=O)[C@@H]1[C@@H]2[C@H](CN1C(=O)[C@@H](NC(=O)NC1(C3CCCS3(=O)=O)CCCCC1)C(C)(C)C)C2(C)C` (stereo partly drawn) [Compound 883-ev], the inhibition constant Ki is below 0.075 µM.

On to `C=CCNC(=O)C(=O)C(CC(F)F)NC(=O)[C@@H]1[C@@H]2[C@H](CN1C(=O)[C@@H](NC(=O)NC1(CS(=O)(=O)C(C)(C)CC)CCCCC1)C1(C)CCCCC1)C2(C)C` (stereo partly drawn) [Compound 430], for which the Ki was below 0.075 µM. On the same count and under the same terms, the value for `CC(C)CCC(NC(=O)[C@@H]1[C@@H]2[C@H](CN1C(=O)[C@@H](NC(=O)NC1(CS(=O)(=O)C(C)(C)C)CCCCC1)C(C)(C)C)C2(C)C)C(=O)C(=O)NC1CC1` (stereo partly drawn) [Compound 583] was below 0.075 µM; that for `C=CCNC(=O)C(=O)[C@H](CCC)NC(=O)[C@@H]1[C@@H]2[C@H](CN1C(=O)[C@@H](NC(=O)NC1(C3CCCCS3(=O)=O)CCCCC1)C1(C)CCCCC1)C2(C)C` (stereo partly drawn) [Compound 818] was below 0.075 µM; that for `C=CCNC(=O)C(=O)[C@H](CCC1CC1)NC(=O)[C@@H]1[C@@H]2[C@H](CN1C(=O)[C@@H](NC(=O)NC1(CS(=O)(=O)C(C)(C)COCC)CCCCC1)C(C)(C)C)C2(C)C` [Compound 771] was below 0.075 µM.

On to `CC1(C)C[C@H]2[C@H](CN(C(=O)[C@@H](NC(=O)NC3(CS(=O)(=O)C(C)(C)C)CCCCC3)C3CCCCC3)[C@@H]2C(=O)NC(CC2CC2)C(=O)C(=O)NC2CC2)O1` (stereo partly drawn) [Compound 558], for which the Ki was 0.075 to 0.25 µM.

With `CCC(C)(C)S(=O)(=O)CC1(NC(=O)N[C@H](C(=O)N2C[C@H]3[C@@H]([C@H]2C(=O)NC(CCC2CC2)C(=O)C(=O)NC2CC2)C3(C)C)C(C)(C)C)CCCCC1` (stereo partly drawn) [Compound 506], the Ki was below 0.075 µM.

For `C=CCNC(=O)C(=O)C(CC1CCC1)NC(=O)[C@@H]1[C@@H]2[C@H](CN1C(=O)[C@@H](NC(=O)NC1(CS(=O)(=O)C(C)(C)C)CCCCC1)C1(C)CCCCC1)C2(C)C` (stereo partly drawn) [Compound 433], the Ki was below 0.075 µM. On the same count and under the same terms, the value for `CCCNC(=O)C(=O)[C@H](CCC)NC(=O)[C@@H]1[C@@H]2[C@H](CN1C(=O)[C@@H](NC(=O)NC1([C@H]3CCCS3(=O)=O)CCCCC1)C1(C)CCCCC1)C2(C)C` [Compound 883-ah] was below 0.075 µM; that for `C#CCNC(=O)C(=O)[C@H](CCC)NC(=O)[C@@H]1[C@@H]2[C@H](CN1C(=O)[C@@H](NC(=O)NC1(C3CCCCS3(=O)=O)CCCCC1)C1(C)CCCCC1)C2(C)C` (stereo partly drawn) [Compound 883-bp] was below 0.075 µM; that for `CC(C)CCS(=O)(=O)CC1(NC(=O)N[C@H](C(=O)N2C[C@H]3[C@@H]([C@H]2C(=O)NC(CC2CC2)C(=O)C(=O)NC2CC2)C3(C)C)C2(C)CCCCC2)CCCCC1` (stereo partly drawn) [Compound 523] was below 0.075 µM. The same measure, in the same setting: to `C=CCNC(=O)C(=O)C(CC(C)C)NC(=O)[C@@H]1[C@@H]2[C@H](CN1C(=O)[C@@H](NC(=O)NC1(CS(=O)(=O)C(C)(C)C)CCCCC1)C(C)(C)C)C2(C)C` (stereo partly drawn) [Compound 576] belongs 0.075 to 0.25 µM. The same measure, in the same setting: to `C=CCNC(=O)C(=O)[C@H](CCC)NC(=O)[C@@H]1[C@@H]2[C@H](CN1C(=O)[C@@H](NC(=O)NC1(C3COCCS3(=O)=O)CCCCC1)C1CCCCC1)C2(C)C` (stereo partly drawn) [Compound 875] belongs below 0.075 µM; to `CCCCC(NC(=O)[C@@H]1[C@@H]2[C@H](CN1C(=O)[C@@H](NC(=O)NC1(CS(=O)(=O)C(C)(C)C)CCCCC1)C1(C)CCCCC1)C2(C)C)C(=O)C(=O)NCc1cccs1` (stereo partly drawn) [Compound 600], below 0.075 µM; to `CC1([C@H](NC(=O)NC2(CS(=O)(=O)C(C)(C)CO)CCCCC2)C(=O)N2C[C@H]3[C@@H]([C@H]2C(=O)NC(CCC2CC2)C(=O)C(=O)NC2CC2)C3(C)C)CCCCC1` (stereo partly drawn) [Compound 679], below 0.075 µM. As to `C=CCNC(=O)C(=O)[C@H](CC1CC1)NC(=O)[C@@H]1[C@@H]2[C@H](CN1C(=O)[C@@H](NC(=O)NC1([C@H]3CCCS3(=O)=O)CCCCC1)C1CCCCC1)C2(C)C` [Compound 883-al], the Ki is below 0.075 µM. Regarding `CCCC[C@H](NC(=O)[C@@H]1[C@@H]2[C@H](CN1C(=O)[C@@H](NC(=O)NC1([C@H]3CCCS3(=O)=O)CCCCC1)C1CCCCC1)C2(C)C)C(=O)C(=O)NCCC` [Compound 883-cd], the Ki is below 0.075 µM. Same read-out and setting: the value for `CNC(=O)C(=O)[C@H](CCC1CC1)NC(=O)[C@@H]1[C@@H]2[C@H](CN1C(=O)[C@@H](NC(=O)NC1(CS(=O)(=O)C(C)(C)C)CCCCC1)C1(C)CCCCC1)C2(C)C` [Compound 883-bb] was below 0.075 µM.

The experiment is the same for the next values; noted with them: Table 4; read-out: Ki* range.
With `C=CCNC(=O)C(=O)C(CC1CC1)NC(=O)[C@@H]1[C@@H]2[C@H](CN1C(=O)[C@@H](NC(=O)N[C@H](CS(=O)(=O)N(C)C(C)(C)C)C(C)(C)C)C(C)(C)C)C2(C)C` (stereo partly drawn) [Compound 1006], the inhibitory constant (Ki) fell in the range of 0.075 to 0.25 µM.
